Measured values reported in US20220135687A1 (NANJING LEGEND BIOTECH, published 2022).

What was measured:
[1] = molecular target: T1, His-tagged PD-L1 ECD protein (ACROBiosystems) (human, UniProt Q9NZQ7 fragment); assay: SPR, IgG captured by anti-human Fc, PD-L1-His analyte
T1 construct: Bought protein; also called PD-L1-His; PD-L1/His; not shown: His tag
Experimental: Briefly, capturing antibody (anti-mouse Fc antibody for the affinity measurement of mouse mAbs, or anti-human Fc antibody for the affinity measurement of chimeric and humanized mAbs, GE healthcare) was immobilized on a Biacore™ CM5 chip to approximately 7,000 RU using EDC-activated amine coupling chemistry. Antibody of interest (5 μg/ml) was captured for 60 seconds onto the sensorchip surface. His-tagged PD-L1 ECD protein (ACROBiosystems) was flowed over the sensorchip surface at a series concentrations. Flow rate was 30 μl/min in all experiments. Association and dissociation phases were 5 and 15 min, respectively. The chip was regenerated using Glycine/HCl pH 1.5. Captured antibody and antigen were removed between each cycle using 50 mM HCl in order to ensure a fresh binding surface for each concentration of antigen. The resulting sensorgrams were fit globally using a 1:1 binding model in order to calculate on- and off-rates (ka and kd, respectively), as well as affinities (KD).

[2] = molecular target: cynomolgus PD-L1 Fc-fusion protein (cynomolgus, UniProt G7PSE7 19-238); assay: SPR, cyno PD-L1-Fc immobilised, antibody analyte
[3] = molecular target: T2, human PD-L1 expressed on CHO-K1 cells (Genscript, Cat #M00543) (human, UniProt Q9NZQ7); assay: FACS competition vs biotin-PD-1-Fc on CHO-K1/human PD-L1 cells
T2 construct: also called PD-L1 cell line
Experimental: A series of diluted mouse mAbs (concentration starting from 900 nM, 3 fold dilution, 50 μl per well) were added afterwards. The mixture was incubated at 4° C. for 30 minutes, washed twice with wash buffer, followed by the addition of PEcy5/streptavidin (1 μg/ml, 150 μl/well). The plates were again incubated at 4° C. for 30 minutes before the cells in each well were analyzed by FACSCalibur (BD Bioscience, San Jose, Calif.) and Flowjo software.

[4] = molecular target: T3, cynomolgus PD-L1 overexpressing stable cell line (cynomolgus, UniProt G7PSE7 19-290); assay: FACS, cynomolgus PD-L1 cell line
T3 construct: also called cynomolgus PD-L1 overexpressing cell line

[5] = molecular target: T2, human PD-L1 expressed on CHO-K1 cells …; assay: cell-based or functional assay
[6] = molecular target: T2, human PD-L1 expressed on CHO-K1 cells …; assay: FACS, CHO-K1/human PD-L1 cells
Experimental: PD-L1 stable cell line binding activity assessment of 12 mouse mAbs was carried out using FACS. CHO-K1 cells expressing human PD-L1 (Genscript, Cat #M00543) were dissociated from adherent culture flasks and mixed with varying concentrations of antibodies. The antibody and cells were incubated for 30 minutes at room temperature, washed three times with FACS buffer (PBS containing 1% BSA). PE-labeled goat anti-mouse IgG (minimal x-reactivity) secondary antibody (BioLegend, Cat #405307) was added and incubated at room temperature for 15 minutes. Cells were washed again with FACS buffer and analyzed by FACSCalibur (BD Bioscience, San Jose, Calif.) and Flowjo software. Data were analyzed with Prism 6 (GraphPad Software, San Diego, Calif.) using non-linear regression, and EC₅₀ values were calculated (FIGS. 2A-2L and Table 3).
Human and cynomolgus PD-L1 stable cell line binding activity assessment of chimeric and humanized mAbs was carried out using FACS as described above (FIGS. 9A-9L and FIGS. 10A-10L and Tables 13 and 14).

[7] = molecular target: T1, His-tagged PD-L1 ECD protein …; assay: SPR, supernatant IgG captured, PD-L1-His analyte

Kd [1] [nM] | koff [1] [s⁻¹] | kon [1] [M⁻¹ s⁻¹] | Kd [2] [nM] | koff [2] [s⁻¹] | kon [2] [M⁻¹ s⁻¹] | IC50 [3] [nM] | EC50 [4] [nM] | Top (best-fit value) [4] | EC50, PD-L1 cell-based luciferase reporter assay [5] [nM] | EC50 [6] [nM] | Top (best-fit value) [6] | Kd [7] [nM] | koff [7] [s⁻¹] | kon [7] [M⁻¹ s⁻¹] | Binder
0.47 | 0.00015 | 310000 | 0.83 | 8.4e-05 | 100000 | 0.429 | 4.77 | 8390 | 2.33 | 1.96 | 6450 | 0.31 | 0.00012 | 380000 | 53C1_VH5-VL1.M1 (antibody, human IgG1, kappa, Humanized, hIgG1 effector-less Fc, kappa; see recheck on K24R in the .M1 light chain) heavy: EVQLVQSGAEVKKPGASVKVSCKASGYIFTGYGITWVRQAPGQGLEWMGEIFPRRVNTYYSEKFKGRVTMTADTSTSTAYMELRSLRSDDTAVYYCARDYDPYFALDYWGQGTTVTVSSASTKGPSVFPLAPSSKSTSGGTAALGCLVKDYFPEPVTVSWNSGALTSGVHTFPAVLQSSGLYSLSSVVTVPSSSLGTQTYICNVNHKPSNTKVDKKV[sequence of human IgG1 Fc with changes omitted] light: DIQMTQSPSSLSASVGDRVTITCRASQDVSTAVDWYQQKPGKAPKLLIYSASYRYTGVPDRFSGSGSGTDFTFTISSLQPEDIATYYCQQHYSIPFTFGQGTKLEIKRTVAAPSVFIFPPSDEQLKSGTASVVCLLNNFYPREAKVQWKVDNALQSGNSQESVTEQDSKDSTYSLSSTLTLSKADYEKHKVYACEVTHQGLSSPVTKSFNRGEC
 |  |  |  |  |  |  |  |  |  |  |  | 0.27 | 0.0001 | 370000 | 53C1_VH6-VL1.M1 (antibody, human IgG1, kappa, Humanized, hIgG1 effector-less Fc, kappa; see recheck on K24R in the .M1 light chain) heavy: EVQLVQSGAEVKKPGASVKLSCKASGYIFTGYGITWVRQAPGQGLEWMGEIFPRRVNTYYSEKFKGRVTMTADTSTSTAYMELRSLRSDDTAVYYCARDYDPYFALDYWGQGTTVTVSSASTKGPSVFPLAPSSKSTSGGTAALGCLVKDYFPEPVTVSWNSGALTSGVHTFPAVLQSSGLYSLSSVVTVPSSSLGTQTYICNVNHKPSNTKVDKKV[sequence of human IgG1 Fc with changes omitted] light: DIQMTQSPSSLSASVGDRVTITCRASQDVSTAVDWYQQKPGKAPKLLIYSASYRYTGVPDRFSGSGSGTDFTFTISSLQPEDIATYYCQQHYSIPFTFGQGTKLEIKRTVAAPSVFIFPPSDEQLKSGTASVVCLLNNFYPREAKVQWKVDNALQSGNSQESVTEQDSKDSTYSLSSTLTLSKADYEKHKVYACEVTHQGLSSPVTKSFNRGEC
 |  |  |  |  |  |  |  |  |  |  |  | 0.17 | 6.3e-05 | 370000 | 53C1_VH6.M3-VL1.M1 (antibody, human IgG1, kappa, Humanized, VH N57Q in the entry; hIgG1 effector-less Fc, kappa; see recheck on K24R in the .M1 light chain) heavy: EVQLVQSGAEVKKPGASVKLSCKASGYIFTGYGITWVRQAPGQGLEWMGEIFPRRVQTYYSEKFKGRVTMTADTSTSTAYMELRSLRSDDTAVYYCARDYDPYFALDYWGQGTTVTVSSASTKGPSVFPLAPSSKSTSGGTAALGCLVKDYFPEPVTVSWNSGALTSGVHTFPAVLQSSGLYSLSSVVTVPSSSLGTQTYICNVNHKPSNTKVDKKV[sequence of human IgG1 Fc with changes omitted] light: DIQMTQSPSSLSASVGDRVTITCRASQDVSTAVDWYQQKPGKAPKLLIYSASYRYTGVPDRFSGSGSGTDFTFTISSLQPEDIATYYCQQHYSIPFTFGQGTKLEIKRTVAAPSVFIFPPSDEQLKSGTASVVCLLNNFYPREAKVQWKVDNALQSGNSQESVTEQDSKDSTYSLSSTLTLSKADYEKHKVYACEVTHQGLSSPVTKSFNRGEC
1.3 | 0.00027 | 200000 | 0.86 | 6.4e-05 | 75000 | 0.902 | 2.76 | 8430 | 2.52 | 1.12 | 6370 | 1.1 | 0.00026 | 240000 | 53C1_VH1-VL1.M1 (antibody, human IgG1, kappa, Humanized, hIgG1 effector-less Fc, kappa; see recheck on K24R in the .M1 light chain) heavy: EVQLVQSGAEVKKPGASVKVSCKASGYIFTGYGITWVRQAPGQGLEWMGEIFPRRVNTYYSEKFKGRVTMTTDTSTSTAYMELRSLRSDDTAVYYCARDYDPYFALDYWGQGTTVTVSSASTKGPSVFPLAPSSKSTSGGTAALGCLVKDYFPEPVTVSWNSGALTSGVHTFPAVLQSSGLYSLSSVVTVPSSSLGTQTYICNVNHKPSNTKVDKKV[sequence of human IgG1 Fc with changes omitted] light: DIQMTQSPSSLSASVGDRVTITCRASQDVSTAVDWYQQKPGKAPKLLIYSASYRYTGVPDRFSGSGSGTDFTFTISSLQPEDIATYYCQQHYSIPFTFGQGTKLEIKRTVAAPSVFIFPPSDEQLKSGTASVVCLLNNFYPREAKVQWKVDNALQSGNSQESVTEQDSKDSTYSLSSTLTLSKADYEKHKVYACEVTHQGLSSPVTKSFNRGEC
 |  |  |  |  |  |  |  |  |  |  |  | 0.75 | 0.0002 | 260000 | 53C1_VH4-VL1.M1 (antibody, human IgG1, kappa, Humanized, hIgG1 effector-less Fc, kappa; see recheck on K24R in the .M1 light chain) heavy: EVQLVQSGAEVKKPGASVKLSCKASGYIFTGYGITWVRQAPGQGLEWMGEIFPRRVNTYYSEKFKGRVTMTTDTSTSTAYMELRSLRSDDTAVYYCARDYDPYFALDYWGQGTTVTVSSASTKGPSVFPLAPSSKSTSGGTAALGCLVKDYFPEPVTVSWNSGALTSGVHTFPAVLQSSGLYSLSSVVTVPSSSLGTQTYICNVNHKPSNTKVDKKV[sequence of human IgG1 Fc with changes omitted] light: DIQMTQSPSSLSASVGDRVTITCRASQDVSTAVDWYQQKPGKAPKLLIYSASYRYTGVPDRFSGSGSGTDFTFTISSLQPEDIATYYCQQHYSIPFTFGQGTKLEIKRTVAAPSVFIFPPSDEQLKSGTASVVCLLNNFYPREAKVQWKVDNALQSGNSQESVTEQDSKDSTYSLSSTLTLSKADYEKHKVYACEVTHQGLSSPVTKSFNRGEC
 |  |  |  |  |  |  |  |  |  |  |  | 0.32 | 9.8e-05 | 310000 | 53C1_VH4.M3-VL1.M1 (antibody, human IgG1, kappa, Humanized, VH N57Q in the entry; hIgG1 effector-less Fc, kappa; see recheck on K24R in the .M1 light chain) heavy: EVQLVQSGAEVKKPGASVKLSCKASGYIFTGYGITWVRQAPGQGLEWMGEIFPRRVQTYYSEKFKGRVTMTTDTSTSTAYMELRSLRSDDTAVYYCARDYDPYFALDYWGQGTTVTVSSASTKGPSVFPLAPSSKSTSGGTAALGCLVKDYFPEPVTVSWNSGALTSGVHTFPAVLQSSGLYSLSSVVTVPSSSLGTQTYICNVNHKPSNTKVDKKV[sequence of human IgG1 Fc with changes omitted] light: DIQMTQSPSSLSASVGDRVTITCRASQDVSTAVDWYQQKPGKAPKLLIYSASYRYTGVPDRFSGSGSGTDFTFTISSLQPEDIATYYCQQHYSIPFTFGQGTKLEIKRTVAAPSVFIFPPSDEQLKSGTASVVCLLNNFYPREAKVQWKVDNALQSGNSQESVTEQDSKDSTYSLSSTLTLSKADYEKHKVYACEVTHQGLSSPVTKSFNRGEC
0.57 | 0.00014 | 250000 | 0.95 | 9.4e-05 | 98000 | 0.28 | 2.63 | 8420 | 1.47 | 1.03 | 6430 | 0.32 | 0.0001 | 320000 | 53C1_VH1.M3-VL1.M1 (antibody, human IgG1, kappa, Humanized, VH N57Q in the entry; hIgG1 effector-less Fc, kappa; see recheck on K24R in the .M1 light chain) heavy: EVQLVQSGAEVKKPGASVKVSCKASGYIFTGYGITWVRQAPGQGLEWMGEIFPRRVQTYYSEKFKGRVTMTTDTSTSTAYMELRSLRSDDTAVYYCARDYDPYFALDYWGQGTTVTVSSASTKGPSVFPLAPSSKSTSGGTAALGCLVKDYFPEPVTVSWNSGALTSGVHTFPAVLQSSGLYSLSSVVTVPSSSLGTQTYICNVNHKPSNTKVDKKV[sequence of human IgG1 Fc with changes omitted] light: DIQMTQSPSSLSASVGDRVTITCRASQDVSTAVDWYQQKPGKAPKLLIYSASYRYTGVPDRFSGSGSGTDFTFTISSLQPEDIATYYCQQHYSIPFTFGQGTKLEIKRTVAAPSVFIFPPSDEQLKSGTASVVCLLNNFYPREAKVQWKVDNALQSGNSQESVTEQDSKDSTYSLSSTLTLSKADYEKHKVYACEVTHQGLSSPVTKSFNRGEC
